Test results taken from PubChem BioAssay AID652104 (National Center for Advancing Translational Sciences (NCATS), 2013).
Out of some 410,000 compounds screened, about 7,200 (1.8%) were called active. The inconclusive results got no clear call from the source; some entries with a clear call stand among them for comparison. Calls come from the whole dose curve; as a rule, active = well fitted activation curve with a large enough effect; inconclusive = small, poorly fitted or top-dose-only effect, or another doubt; inactive = no such curve, though single readings can be large or run the other way. No potency is given beside an inconclusive call; the fits are too rough.

Assay: qHTS of TDP-43 Inhibitors; note: nearly all actives have a fitted effect of over 50% in size; for growth rescue (activation): % of control where 0% means no effect
Conditions: TDP-43 expressing yeast growth rescue, BacTiter-Glo, 24 h; growth rescue (activation): at 46.1 µM (top of the series) unless noted
In short: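 In this qHTS, compounds that restore growth of yeast expressing TDP-43 appear as activators. Cells (OD600=0.02, galactose medium, raffinose-pregrown) are incubated with compound 24 hr at 30 deg C and growth is quantified by BacTiter-Glo.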
Potency is the fitted concentration of half-maximal effect; tags give direction and shape of the fitted curve.

Structure (SMILES) | Potency | growth rescue (activation)
O=C(CCCSc1ccc(Cl)cc1)Nc1ccccc1O | inconclusive [activator, partial curve] | –
CCCCCCC1CCC(C(=O)NC(C(=O)O)C(C)C)CC1 (stereo unspecified) | active: 20 µM | –
O=C1/C(=C/c2ccncc2)Oc2cc(OS(=O)(=O)c3ccccc3)ccc21 | inactive | –
CCOc1ccc(C(=O)C(CN2CCOCC2)c2ccccc2)cc1 (stereo unspecified) | inconclusive [activator, partial curve] | –
COc1ccc(CN2CCCN(CC(=O)Nc3ccc4c(c3)OCCO4)S2(=O)=O)cc1 | inconclusive [activator, full curve, poor fit] | –
COc1ccc(N2CCN(Cc3nc4scc(-c5cccs5)c4c(=O)[nH]3)CC2)cc1 | inactive | –
CC(C)COc1ccc(-c2cc(C(=O)NN)[nH]n2)cc1 | inconclusive [activator, single point] | –
COc1cccc(C2SCC(=O)N2c2cccc(C)c2)c1OC (stereo unspecified) | inconclusive [activator, partial curve] | –
CC(=O)c1cccc(NC(=O)c2nc(-c3ccccc3)n(-c3ccccc3C)n2)c1 | inconclusive [activator, single point] | –
COc1ccc(C)cc1Nc1nc(N)c2cc(OC)c(OC)cc2n1 | inconclusive [activator, partial curve] | –
NS(=O)(=O)c1cc2c(cc1Cl)NC(C(Cl)Cl)NS2(=O)=O (stereo unspecified) | inconclusive [activator, partial curve, poor fit] | –
Cc1nc2c(c(C)nn2-c2ccccc2)c(C)c1CCC(=O)NCc1ccccc1 | inconclusive [activator, partial curve] | –
O=C(NCCCCc1ccccc1)C1CC(c2ccccc2[N+](=O)[O-])=NO1 (stereo unspecified) | inconclusive [activator, partial curve] | –
COCCN1CCN(Cc2ccc(C(=O)NC(C)C)cc2)C(=O)C1=O | inactive | –
CC(C)(C)NC(=O)CSc1nncn1NCc1cccc2ccccc12 | inactive | –
COc1ccc(CNC(=O)C(C)n2c(=O)cc(C)c3c(C)nn(-c4ccccc4)c32)cc1 (stereo unspecified) | inactive | –
OCCNc1nc(-c2ccccc2)c2cc(Br)ccc2n1 | inconclusive [activator, single point] | –
CC(C)(C)c1ccc(CC(=O)N2CCC2(C)C(=O)Nc2cnc3ccccc3c2)cc1 (stereo unspecified) | active: 17.8 µM | –
Cc1cccc(NC(=O)c2nc(S(=O)(=O)Cc3ccccc3)ncc2Cl)c1 | active: 7.08 µM | –
CC(O)(c1ccccc1)c1nc(-c2ccccc2)cs1 (stereo unspecified) | active: 14.1 µM | –
O=C(Nc1ccc(C2=NCCN2)cc1)c1ccc(C(=O)Nc2ccc(C3=NCCN3)cc2)c([N+](=O)[O-])c1 | inactive | –
CCOC(=O)Cn1c(=O)oc2cc(S(=O)(=O)N3CCN(c4cc(C)ccc4C)CC3)ccc21 | inactive | –
CCn1c(=O)cc(NC2=NCC(C)CN2c2cccc(Cl)c2)n(C)c1=O (stereo unspecified) | inconclusive [activator, partial curve] | –
COc1ccc(Cl)cc1NC(=O)c1cccc(N2C(=O)C3CC=CCC3C2=O)c1 (stereo unspecified) | active: 11.2 µM | –

Structure (SMILES) | Potency | growth rescue (activation)
O=C(COC(=O)c1cc([N+](=O)[O-])ccc1Cl)NCCc1ccccc1 | inconclusive [activator, partial curve] | –
CC1(C)CN=c2s/c(=C\c3ccc(Cl)cc3)c(=O)n2C1 | inconclusive [activator, partial curve] | –
O=C(c1cccc(COc2cccc3ccccc23)c1)N1CCCC1 | active: 22.4 µM | –
c1ccc(-c2cc3c(N4CCN(c5ccccc5)CC4)ncnc3s2)cc1 | active: 28.2 µM | –
COc1ccc(C(=O)N2CCN(c3nc4cc(C)cc(C)c4cc3C#N)CC2)cc1 | inconclusive [activator, single point] | –
O=C(NCc1ccc2c(c1)OCO2)OCc1ccccc1 | inconclusive [activator, partial curve] | –
Cc1cc([N+](=O)[O-])ccc1Nc1nc2ccccc2n2cnnc12 | inconclusive [activator, partial curve] | –
Cc1c(Cl)ccc2sc(N3CCN(C(=O)CS(=O)(=O)c4ccccc4)CC3)nc12 | active: 17.8 µM | –
N#Cc1cc([N+](=O)[O-])ccc1N1CCCC1 | inconclusive [activator, single point] | –
O=C(Cc1c(C(=O)O)[nH]c2ccccc12)Nc1cccc(C(F)(F)F)c1 | inconclusive [activator, partial curve] | –
COc1ccc(CCN2C(=O)CC(Cc3ccc(Br)cc3)C2=O)cc1OC (stereo unspecified) | inconclusive [activator, partial curve] | –
O=C(COC(=O)/C=C/c1cccc(Cl)c1)NC1CC1 | inactive | –
CCCCNC(=O)CSc1nc2ccccc2c(=O)n1C1CCCC1 | inconclusive [activator, single point] | –
CCN(CC)C(=O)Cn1cc(C(=O)C(=O)N(C)C2CCN(C)CC2)c2ccccc21 | inactive | –
CSc1cccc(NC(=O)CSc2ccccc2)c1 | active: 14.1 µM | –
O=C(Nc1ccc(Cl)cc1)N1CCC(c2nc(-c3ccccc3Cl)no2)CC1 | active: 17.8 µM | –
COc1ccc(-c2cc(C(F)(F)F)nc(-n3cc(Cl)cn3)n2)cc1 | active: 11.2 µM | –
COc1cc2ccccc2cc1C(=O)N1CCN(c2ccccn2)CC1 | inactive | –
COc1cc(-c2nnn(CC#N)n2)ccc1OCc1ccccc1 | inconclusive [activator, single point] | –
CCOc1ccc(C(=O)c2cn(CC(=O)Nc3ccc(F)cc3)c3cc4c(cc3c2=O)OCCO4)cc1 | inactive | –
COC(=O)c1ccc(NC(=O)COc2cccc3c2OC(C)(C)C3)cc1 | inconclusive [activator, single point] | –
CO/N=C(/CNC(=O)c1cccc(Cl)c1)c1ccc(Cl)cc1 | inconclusive [activator, single point] | –
O=C(Nc1ccc2c(c1)OCCO2)C(C1CC1)N1CCN(c2ccc(C(F)(F)F)cn2)CC1 (stereo unspecified) | inconclusive [activator, partial curve, poor fit] | –
CCn1cc(SCC(=O)N2CCc3ccccc32)c2ccccc21 | – | inconclusive: -43.6% [activator]

Structure (SMILES) | Potency | growth rescue (activation)
NCCCC(=O)O | inconclusive [activator, partial curve, poor fit] | –
COc1cc([N+](=O)[O-])cc(/C=N/NC(=O)c2cncc(Br)c2)c1O | inconclusive [activator, full curve] | –
CN=C1S/C(=C\c2cccn2-c2cccc(Br)c2)C(=O)N1C | inconclusive [activator, single point] | –
COc1ccc(-c2nnc(COc3ccc4ccccc4c3)o2)cc1OC | inconclusive [activator, single point] | –
Cn1cnnc1SCC(=O)Nc1ccc2nc(SCc3ccccc3Cl)sc2c1 | inconclusive [activator, partial curve] | –
Cc1cc(C(F)(F)F)n2[nH]c(=O)c(N=Nc3ccccc3)c2n1 | inconclusive [activator, single point] | –
CCOC(=O)C1(C)CCN1C(=O)/C=C/c1ccccc1 (stereo unspecified) | inactive | –
COC(=O)c1c(-c2ccc(S(C)(=O)=O)cc2)sc2ccc(OC)cc12 | inconclusive [activator, single point] | –
COc1ccccc1OCCOCCN1CCCC1 | inactive | –
CCc1nnc(SCC(=O)Nc2ccc(C(C)=O)cc2)nc1CC | inconclusive [activator, partial curve] | –
CCC(C)(C)NC(=O)C1CCN(S(=O)(=O)c2c(C)noc2/C=C/c2ccc(C)cc2)CC1 | inactive | –
CCCCCc1ccc(-c2nnc(N)s2)cc1 | inconclusive [activator, single point] | –
Fc1ccc(-n2cc(-c3ccccc3)c3c(NCCc4ccccc4)ncnc32)cc1 | inconclusive [activator, single point] | –
c1ccc(Cc2nn3c(C4COc5ccccc5O4)nnc3s2)cc1 (stereo unspecified) | inconclusive [activator, single point] | –
Clc1cccc(-n2cc(-c3ccccc3)c3c(N4CCCCC4)ncnc32)c1 | inconclusive [activator, partial curve] | –
COc1cccc(C(=O)NCCN2C(=O)S/C(=C/c3cccs3)C2=O)c1OC | inconclusive [activator, partial curve] | –
Brc1ccc(C2=Nn3cnnc3SC2)cc1 | inconclusive [activator, partial curve] | –
Cc1ccc(C(C)C)c(OCC(=O)Nc2ccccc2N2CCN(C)CC2)c1 | inactive | –
O=C(Nc1cccc(Cl)c1)OCc1cnc(Cl)s1 | inconclusive [activator, partial curve] | –
Cc1cc(C)c(/C=C/c2onc(C)c2S(=O)(=O)N2CCC(C(=O)N(C)Cc3ccccc3)CC2)c(C)c1 | inconclusive [activator, partial curve] | –
Cc1cccc(C)c1OCc1cc(C(=O)N2CCN(c3ccc(F)cc3)CC2)no1 | inconclusive [activator, single point] | –
O=C(CCN1CCc2ccccc2C(O)(c2ccccc2)C1)c1ccc2c(c1)OCCO2 (stereo unspecified) | – | inconclusive: -92.4% [activator]
CCC1=Nc2cc(C(=O)O)ccc2Sc2ccc(Cl)cc21 | active: 14.1 µM | –
